The text below walks through data of the supplement of paper PMC4166925.

± gives the standard deviation of the averaged measurements. The full ranking holds about 33,000 sequences; the median of “E-score (dimensionless, -0.5 to 0.5)” is about -0.049, and the highest 2% start at about 0.37. This is one part of the list.
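Note: 200 nM protein in PBS on universal arrays averaged over duplicate arrays.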

For the experiment, the system named is T1, PmTbr T-box DNA-binding domain (GST fusion).
T1 sequence: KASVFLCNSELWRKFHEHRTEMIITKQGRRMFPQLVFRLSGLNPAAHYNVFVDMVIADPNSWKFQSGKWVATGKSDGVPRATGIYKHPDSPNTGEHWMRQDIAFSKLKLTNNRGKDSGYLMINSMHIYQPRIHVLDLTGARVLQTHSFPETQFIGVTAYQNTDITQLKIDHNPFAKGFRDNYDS
Kind of experiment: PBM E-score of 8-mer (E-score (dimensionless, -0.5 to 0.5)); Tbr is Tbrain of the sea star Patiria miniata (Pm) or the sea urchin Strongylocentrotus purpuratus (Sp); higher = stronger binding preference; most listed sequences are background and not binding sites. To be noted: the construct has about 5 more residues each side. Here is the method: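 Universal protein-binding microarray (Agilent AMADID 016060, 60-bp probes with a 35-bp variable region) incubated with 200 nM GST-fused Patiria miniata Tbr T-box DNA-binding domain (residues 272-466) in PBS pH 7.5. Scored for every ungapped 8-mer (given with its reverse complement) by the Universal PBM Analysis Suite as E-score (modified Wilcoxon-Mann-Whitney enrichment, range -0.5 to 0.5; >0.45 counts as bound) and Z-score of median probe intensity. Two replicate arrays (datasets 1 and 2).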
For the sequence GCTATGCC, the “PBM E-score of 8-mer” value was -0.172 ± 0.045.
For the sequence CCCTGCTA, the “PBM E-score of 8-mer” value is 0.0423 ± 0.0081.
Take TCTATCAA: the “PBM E-score of 8-mer” value is -0.148 ± 0.052.
TGATTACA: the “PBM E-score of 8-mer” value came to 0.0958 ± 0.048.
Turning to AGCTACTG, the “PBM E-score of 8-mer” value is -0.13 ± 0.055.
The figure for TAACGCCA is 0.245 ± 0.051.
Turning to ATGCCTAG, the “PBM E-score of 8-mer” value was -0.218 ± 0.064.
Regarding CAACCTCC, the “PBM E-score of 8-mer” value is 0.16 ± 0.033.
The figure for ATCAAGAA is -0.26 ± 0.073; for AGTATCCA it is -0.0526 ± 0.08.
Turning to ACCCCTAT, the “PBM E-score of 8-mer” value stood at 0.024 ± 0.0092.
Then AAGATGAA, with -0.131 ± 0.065; and GTCAACGA, with 0.234 ± 0.014; and CGACCTGC, with 0.196 ± 0.043.
Then CGATGTGC, with 0.236 ± 0.082; and CAGTGTGA, with 0.3958 ± 0.0034.
With GATGGCCA, the “PBM E-score of 8-mer” value was -0.286 ± 0.0032.
With ACTCCCAC, the “PBM E-score of 8-mer” value stood at 0.202 ± 0.0068.
GTGCGTTA: the “PBM E-score of 8-mer” value worked out at 0.0621 ± 0.02.
For the sequence TGATACAA, the “PBM E-score of 8-mer” value turned out to be 0.126 ± 0.037.
The figure for ACCATTCT is 0.00522 ± 0.013.
Turning to GACAGGAA, the “PBM E-score of 8-mer” value worked out at 0.08894 ± 0.00038.
Regarding CACCCTGA, the “PBM E-score of 8-mer” value was found to be 0.239 ± 0.049.
The figure for CGATCCGA is -0.184 ± 0.068; for CTGCGCAA it is 0.00455 ± 0.037; for TAACTACA it is -0.0529 ± 0.014.
On to CAAAACAC, for which the “PBM E-score of 8-mer” value turned out to be 0.182 ± 0.0029.
Take CACCCTCC: the “PBM E-score of 8-mer” value was found to be 0.28 ± 0.063.
In the case of CTGTATGA, the “PBM E-score of 8-mer” value is -0.163 ± 0.043.
The figure for ACGTAGAG is -0.136 ± 0.046; for AACGAGCT it is -0.207 ± 0.056.
Then AAACCTTC, with -0.268 ± 0.086.
The figure for GATTGTTA is 0.109 ± 0.061; for CCAGTAGC it is -0.13 ± 0.063; for CCTCAGCG it is -0.0753 ± 0.039.
As to AGTGGAAG, the “PBM E-score of 8-mer” value is -0.0694 ± 0.034.
For the sequence ATGAACTG, the “PBM E-score of 8-mer” value was -0.0337 ± 0.061.
The figure for CCCGACTC is 0.0379 ± 0.046; for CGTAGCAG it is 0.0216 ± 0.014; for GGACTTCA it is -0.364 ± 0.011.
As for ACTTGGCA, the “PBM E-score of 8-mer” value was determined as 0.239 ± 0.015.
Regarding AGCCTATG, the “PBM E-score of 8-mer” value is -0.182 ± 0.025.
For the sequence GTTCTCAA, the “PBM E-score of 8-mer” value stood at 0.0659 ± 0.04.
The figure for CGACGCAC is -0.0252 ± 0.048; for GATGGACC it is -0.0799 ± 0.023; for ACTTCGCG it is 0.32923 ± 0.00015.
Consider ACTACAAG, for which the “PBM E-score of 8-mer” value is -0.00619 ± 0.011.
Turning to CTACAAGA, the “PBM E-score of 8-mer” value is -0.175 ± 0.032.
Take CGTCTGTC: the “PBM E-score of 8-mer” value was -0.0173 ± 0.047.
Then AATACTCG, with -0.0236 ± 0.098; and GACATGAA, with 0.127 ± 0.07; and CGCTTTCA, with 0.0848 ± 0.014.
For the sequence CGCGCACG, the “PBM E-score of 8-mer” value was found to be 0.132 ± 0.017.
For CAGCTCCG, the “PBM E-score of 8-mer” value stood at 0.0604 ± 0.0069.
Regarding CTCTAACC, the “PBM E-score of 8-mer” value is -0.103 ± 0.089.
Take CTTCTAAC: the “PBM E-score of 8-mer” value stood at 0.0384 ± 0.091.
With AACTATAA, the “PBM E-score of 8-mer” value was -0.203 ± 0.11.
The figure for TAAGCCTA is -0.159 ± 0.044; for CATGTAGC it is -0.0571 ± 0.074.
Consider AAGCGTGC, for which the “PBM E-score of 8-mer” value was found to be 0.11 ± 0.036.
Take TCTTTGCA: the “PBM E-score of 8-mer” value amounted to 0.137 ± 0.043.
As to ATGACCCG, the “PBM E-score of 8-mer” value was -0.146 ± 0.068.
As for GCATACGA, the “PBM E-score of 8-mer” value is -0.109 ± 0.041.
Turning to CCGCAGAA, the “PBM E-score of 8-mer” value is -0.267 ± 0.0057.
Consider CGTTTTCC, for which the “PBM E-score of 8-mer” value is -0.202 ± 0.03.
Then CTCAGGTC, with -0.21 ± 0.05; and CATGACCC, with -0.29 ± 0.034.
Take GCCACCAC: the “PBM E-score of 8-mer” value worked out at 0.122 ± 0.08.
For CTCAACCC, the “PBM E-score of 8-mer” value is -0.17 ± 0.071.
For the sequence CACTTGCC, the “PBM E-score of 8-mer” value amounted to 0.327 ± 0.027.
Consider ATTTATGG, for which the “PBM E-score of 8-mer” value is -0.0215 ± 0.03.
In the case of CTGCCTAA, the “PBM E-score of 8-mer” value was -0.11 ± 0.074.
Regarding GGAACAGA, the “PBM E-score of 8-mer” value is -0.0553 ± 0.052.
The figure for GGCGATGA is 0.117 ± 0.0038; for CGGCCAGC it is -0.127 ± 0.033; for AGAGCTCT it is -0.224 ± 0.07.
Turning to AGCCCGAG, the “PBM E-score of 8-mer” value was -0.255 ± 0.066.
ACCAGCAC: the “PBM E-score of 8-mer” value is 0.146 ± 0.06.
With CCAAGCCG, the “PBM E-score of 8-mer” value was -0.3061 ± 0.00071.
Then ATCGTCTA, with -0.095 ± 0.0027; and CGACGTGC, with 0.245 ± 0.019.
As for CGAACTTA, the “PBM E-score of 8-mer” value came to 0.125 ± 0.02.
CCTCGAAA: the “PBM E-score of 8-mer” value is -0.0356 ± 0.1.
Then AAGGAGTA, with -0.268 ± 0.019; and AATTGTCG, with 0.207 ± 0.018; and TATGGCCA, with -0.244 ± 0.0028.
As for AGTCGACA, the “PBM E-score of 8-mer” value came to 0.253 ± 0.013.
On to CTTAACTC, for which the “PBM E-score of 8-mer” value was -0.0873 ± 0.031.
On to AAGGTATA, for which the “PBM E-score of 8-mer” value is -0.247 ± 0.074.
Regarding ATCCGCGA, the “PBM E-score of 8-mer” value turned out to be 0.128 ± 0.023.
For the sequence TAAGCGCA, the “PBM E-score of 8-mer” value amounted to 0.0205 ± 0.088.
As for ACCAATGG, the “PBM E-score of 8-mer” value was -0.0861 ± 0.043.
The figure for CACCCACC is 0.251 ± 0.054; for CCCCAGAA it is -0.214 ± 0.054; for GGCATACA it is -0.206 ± 0.025.
The figure for CCCAGAGC is -0.0443 ± 0.14; for ACAGTCAC it is 0.243 ± 0.0064.
For TAAGTTGA, the “PBM E-score of 8-mer” value is -0.0353 ± 0.066.
The figure for ACTTCCCT is 0.00556 ± 0.045.
On to CAGGCGTA, for which the “PBM E-score of 8-mer” value was -0.0498 ± 0.043.
Take GAGTGCCC: the “PBM E-score of 8-mer” value was -0.0778 ± 0.084.
GGTTCACA: the “PBM E-score of 8-mer” value was 0.372 ± 0.0038.
Take AGATTGAT: the “PBM E-score of 8-mer” value is -0.208 ± 0.078.
GCATAGTA: the “PBM E-score of 8-mer” value was -0.202 ± 0.024.
Turning to AAGACGTG, the “PBM E-score of 8-mer” value amounted to 0.169 ± 0.015.
Turning to CATGTTGA, the “PBM E-score of 8-mer” value was determined as 0.1289 ± 0.00047.
For the sequence GCCGTCTA, the “PBM E-score of 8-mer” value is -0.288 ± 0.021.
On to ATCTGTCG, for which the “PBM E-score of 8-mer” value came out at 0.243 ± 0.022.
Take CCATGCTA: the “PBM E-score of 8-mer” value is -0.0624 ± 0.055.
